# Source: PMC5106215
# The chains behind the UniProt entries cited, without tags or fusion partners. Where a name states a change or a piece, a line headed by the entry shows the natural chain unless it says otherwise. A line that says so, or that is headed by a name, gives the form on record, which may keep a tag or linker.
# FcγRIIb Y273F-GFP (P31994-2, form named): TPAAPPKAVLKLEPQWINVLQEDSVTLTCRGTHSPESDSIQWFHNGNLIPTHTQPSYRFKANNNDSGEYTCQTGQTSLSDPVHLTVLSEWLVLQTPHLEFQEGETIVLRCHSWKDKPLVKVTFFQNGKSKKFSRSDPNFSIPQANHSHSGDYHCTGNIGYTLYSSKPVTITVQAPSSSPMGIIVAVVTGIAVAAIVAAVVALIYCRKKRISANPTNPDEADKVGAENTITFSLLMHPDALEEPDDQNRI
# endogenous FcγRIIb in SH-SY5Y cells (human (endogenous in SH-SY5Y)) (P31994-2, form named): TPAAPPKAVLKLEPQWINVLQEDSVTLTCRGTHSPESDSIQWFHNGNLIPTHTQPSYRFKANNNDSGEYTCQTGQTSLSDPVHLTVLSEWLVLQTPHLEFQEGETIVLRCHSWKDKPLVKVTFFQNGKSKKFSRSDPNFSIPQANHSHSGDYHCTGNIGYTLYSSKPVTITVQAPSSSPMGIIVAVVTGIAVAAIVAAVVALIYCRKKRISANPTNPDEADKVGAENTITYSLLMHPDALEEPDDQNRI
# No constants are given. Whether binding was seen depends on the method and setting. Binding seen in cells or lysates may run through a third protein. Some binding calls cover weakened binding; strength is not graded here. For some assays here: Tags and fused reporters may be left off the sequences shown.
# T1: SHIP2-His (mouse) (UniProt Q6P549)
# T1 sequence: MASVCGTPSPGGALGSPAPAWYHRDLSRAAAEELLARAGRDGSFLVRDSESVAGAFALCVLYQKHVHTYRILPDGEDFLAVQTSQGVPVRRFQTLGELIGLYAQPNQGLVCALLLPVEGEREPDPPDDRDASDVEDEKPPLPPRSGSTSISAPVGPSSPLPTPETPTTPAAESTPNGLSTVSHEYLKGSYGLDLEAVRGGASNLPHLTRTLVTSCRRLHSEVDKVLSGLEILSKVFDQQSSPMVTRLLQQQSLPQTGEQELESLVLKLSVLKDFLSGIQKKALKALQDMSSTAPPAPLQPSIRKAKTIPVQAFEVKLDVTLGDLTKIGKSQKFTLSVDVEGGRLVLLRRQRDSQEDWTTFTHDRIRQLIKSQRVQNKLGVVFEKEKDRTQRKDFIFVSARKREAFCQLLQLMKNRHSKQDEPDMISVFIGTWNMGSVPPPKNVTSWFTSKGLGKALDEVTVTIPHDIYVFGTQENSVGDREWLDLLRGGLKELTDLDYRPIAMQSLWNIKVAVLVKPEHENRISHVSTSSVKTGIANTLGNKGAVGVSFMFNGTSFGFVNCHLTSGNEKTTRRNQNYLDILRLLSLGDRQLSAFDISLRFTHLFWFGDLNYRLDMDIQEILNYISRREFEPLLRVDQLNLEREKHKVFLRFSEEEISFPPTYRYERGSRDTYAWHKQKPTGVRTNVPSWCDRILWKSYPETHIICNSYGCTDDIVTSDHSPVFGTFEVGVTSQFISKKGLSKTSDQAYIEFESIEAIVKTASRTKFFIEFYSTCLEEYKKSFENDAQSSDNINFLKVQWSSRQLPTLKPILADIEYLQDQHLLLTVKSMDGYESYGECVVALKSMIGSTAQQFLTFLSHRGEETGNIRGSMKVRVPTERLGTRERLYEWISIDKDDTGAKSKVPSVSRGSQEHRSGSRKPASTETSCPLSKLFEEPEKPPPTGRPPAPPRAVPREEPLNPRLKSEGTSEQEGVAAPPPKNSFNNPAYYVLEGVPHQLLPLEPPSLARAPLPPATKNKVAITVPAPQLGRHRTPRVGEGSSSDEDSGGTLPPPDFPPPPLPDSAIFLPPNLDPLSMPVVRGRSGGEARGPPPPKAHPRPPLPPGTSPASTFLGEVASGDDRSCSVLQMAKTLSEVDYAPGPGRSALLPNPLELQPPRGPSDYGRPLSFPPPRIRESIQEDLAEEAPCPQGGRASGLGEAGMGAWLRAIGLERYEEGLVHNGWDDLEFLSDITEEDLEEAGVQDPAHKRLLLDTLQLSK
# B1: SHIP2-His (enzyme, UniProt Q6P549 1-1257)
# chain: T1 sequence
# B2: endogenous SHIP2 in SH-SY5Y cells (enzyme, UniProt O15357 1-1258)
# chain: MASACGAPGPGGALGSQAPSWYHRDLSRAAAEELLARAGRDGSFLVRDSESVAGAFALCVLYQKHVHTYRILPDGEDFLAVQTSQGVPVRRFQTLGELIGLYAQPNQGLVCALLLPVEGEREPDPPDDRDASDGEDEKPPLPPRSGSTSISAPTGPSSPLPAPETPTAPAAESAPNGLSTVSHDYLKGSYGLDLEAVRGGASHLPHLTRTLATSCRRLHSEVDKVLSGLEILSKVFDQQSSPMVTRLLQQQNLPQTGEQELESLVLKLSVLKDFLSGIQKKALKALQDMSSTAPPAPQPSTRKAKTIPVQAFEVKLDVTLGDLTKIGKSQKFTLSVDVEGGRLVLLRRQRDSQEDWTTFTHDRIRQLIKSQRVQNKLGVVFEKEKDRTQRKDFIFVSARKREAFCQLLQLMKNKHSKQDEPDMISVFIGTWNMGSVPPPKNVTSWFTSKGLGKTLDEVTVTIPHDIYVFGTQENSVGDREWLDLLRGGLKELTDLDYRPIAMQSLWNIKVAVLVKPEHENRISHVSTSSVKTGIANTLGNKGAVGVSFMFNGTSFGFVNCHLTSGNEKTARRNQNYLDILRLLSLGDRQLNAFDISLRFTHLFWFGDLNYRLDMDIQEILNYISRKEFEPLLRVDQLNLEREKHKVFLRFSEEEISFPPTYRYERGSRDTYAWHKQKPTGVRTNVPSWCDRILWKSYPETHIICNSYGCTDDIVTSDHSPVFGTFEVGVTSQFISKKGLSKTSDQAYIEFESIEAIVKTASRTKFFIEFYSTCLEEYKKSFENDAQSSDNINFLKVQWSSRQLPTLKPILADIEYLQDQHLLLTVKSMDGYESYGECVVALKSMIGSTAQQFLTFLSHRGEETGNIRGSMKVRVPTERLGTRERLYEWISIDKDEAGAKSKAPSVSRGSQEPRSGSRKPAFTEASCPLSRLFEEPEKPPPTGRPPAPPRAAPREEPLTPRLKPEGAPEPEGVAAPPPKNSFNNPAYYVLEGVPHQLLPPEPPSPARAPVPSATKNKVAITVPAPQLGHHRHPRVGEGSSSDEESGGTLPPPDFPPPPLPDSAIFLPPSLDPLPGPVVRGRGGAEARGPPPPKAHPRPPLPPGPSPASTFLGEVASGDDRSCSVLQMAKTLSEVDYAPAGPARSALLPGPLELQPPRGLPSDYGRPLSFPPPRIRESIQEDLAEEAPCLQGGRASGLGEAGMSAWLRAIGLERYEEGLVHNGWDDLEFLSDITEEDLEEAGVQDPAHKRLLLDTLQLSK
# Legend:
# SHIP2-His (mouse) = molecular target: T1, SHIP2-His (mouse); assay: co-IP; cells co-transfected with pSHIP2-His and pFcγRIIb WT-GFP or Y273F-GFP for 36 hr; IP with anti-His antibody, protein G-Sepharose, 12 hr at 4°C; blot anti-GFP and anti-His
# FcγRIIb-GFP (human) = FcγRIIb-GFP (human) (UniProt P31994); assay: co-IP; reverse: cells co-transfected with pSHIP2-His and pFcγRIIb WT-GFP or Y273F-GFP for 36 hr; IP with anti-GFP antibody, protein G-Sepharose, 12 hr at 4°C; blot anti-GFP and anti-His
# [1] = molecular target: FcγRIIb Y273F-GFP (human) (UniProt P31994); assay: as above
# [2] = molecular target: endogenous FcγRIIb in SH-SY5Y cells (human (endogenous in SH-SY5Y)) (UniProt P31994); assay: co-IP; endogenous proteins; SH-SY5Y cells incubated with 1 μM Aβ_(1-42) oligomers for 24 hr; IP with anti-FcγRIIb or anti-SHIP2 antibody in IP buffer (50 mM Tris-Cl pH 7.4, 150 mM NaCl, 1% Triton X-100, 1 mM EDTA), 12 hr at 4°C, protein G-Sepharose
molecule,measurement,setting,value
FcγRIIb Y273F-GFP (from UniProt P31994-2 43-291) (receptor),binding,SHIP2-His (mouse),no binding
FcγRIIb-GFP (from UniProt P31994-2 43-291) (receptor),binding,SHIP2-His (mouse),binds
B1,binding,FcγRIIb-GFP (human),binds
same,binding,[1],no binding
B2,binding,[2],binds
